Measurements published in patent US11618753B2 (priority 2018, dated 2023).

Test system: MLKL phosphorylation, HT29-L23 human colorectal adenocarcinoma cells
Assay: cells
Details: read-out: pMLKL HCS Cell Assay (IC50, uM)

**Q.** For `COc1ncc(-c2cc(C(F)F)c3c(N)ncnn23)cc1C(=O)N[C@@H]1CN(C(=O)[C@@](C)(O)C(F)(F)F)C[C@@H]1F` [Example 1602, 5-[4-amino-5-(difluoromethyl)pyrrolo[2,1-f][1,2,4]triazin-7-yl]-N-[(3R,4S)-4-fluoro-1-[(2R)-3,3,3-trifluoro-2-hydroxy-2-methylpropanoyl]pyrrolidin-3-yl]-2-methoxypyridine-3-carboxamide], which IC50 is on record?
**A.** 0.0095 µM

**Q.** For `COc1ncc(-c2cc(C(F)(F)F)c3c(N)ncnn23)cc1C(=O)NC1CN(C2CCc3ccc(F)cc32)C[C@@H]1F` (stereo partly drawn) [Example 1368, 5-[4-amino-5-(trifluoromethyl)-pyrrolo[2,1-f][1,2,4]triazin-7-yl]-N-[(3R,4S)-4-fluoro-1-(6-fluoro-2,3-dihydro-1H-inden-1-yl)pyrrolidin-3-yl]-2-methoxypyridine-3-carbox-amide], which IC50 is on record?
**A.** 0.026 µM

**Q.** With `COc1ncc(-c2cc(C(F)(F)F)c3c(N)ncnn23)cc1C(=O)N[C@@H]1CN(C(=O)O[C@@H](CO)CC(C)C)C[C@@H]1F` [Example 1418, (R)-1-Hydroxy-4-methylpentan-2-yl (3R,4S)-3-(5-(4-amino-5-(trifluoromethyl)pyrrolo[2,1-f][1,2,4]triazin-7-yl)-2-methoxynicotinamido)-4-fluoropyrrolidine-1-carboxylate] as the molecule, how does the IC50 read?
**A.** 0.132 µM

**Q.** How did the IC50 turn out when `Cc1cc(F)c(-c2cc(C(F)(F)F)c3c(N)ncnn23)cc1C(=O)N[C@@H]1CN(C(=O)C(C)C)C[C@@H]1F` [Example 793, 5-[4-amino-5-(trifluoromethyl)pyrrolo[2,1-f][1,2,4]triazin-7-yl]-4-fluoro-N-[(3R,4S)-4-fluoro-1-(2-methylpropanoyl)pyrrolidin-3-yl]-2-methylbenzamide] was run?
**A.** 0.0044 µM

**Q.** With `COc1c(F)cc(-c2cc(C(F)(F)F)c3c(N)ncnn23)cc1C(=O)N[C@@H]1CN(C(=O)CC(C(F)(F)F)C(F)(F)F)C[C@@H]1F` [Example 691, 5-[4-amino-5-(trifluoromethyl)pyrrolo[2,1-f][1,2,4]triazin-7-yl]-3-fluoro-N-[(3R,4S)-4-fluoro-1-[4,4,4-trifluoro-3-(trifluoromethyl)butanoyl]pyrrolidin-3-yl]-2-methoxybenzamide] as the molecule, how does the IC50 read?
**A.** 0.016 µM

**Q.** `COc1ncc(-c2cc(CN3CCC(F)(F)CC3)c3c(N)ncnn23)cc1C(=O)NC1CN(C(=O)CC(O)(C(F)(F)F)C(F)(F)F)CCC1F` (stereo not drawn) [Example 1665, 5-{4-amino-5-[(4,4-difluoropiperidin-1-yl)methyl]pyrrolo[2,1-f][1,2,4]triazin-7-yl}-N-{4-fluoro-1-[4,4,4-trifluoro-3-hydroxy-3-(trifluoromethyl)butanoyl]piperidin-3-yl}-2-methoxypyridine-3-carboxamide] was tested. Which IC50 did it give?
**A.** 0.033 µM

**Q.** With `COc1ncc(-c2cc(CN3CCC(F)(F)CC3)c3c(N)ncnn23)cc1C(=O)N[C@H]1CCC[C@@H](c2ccccc2)C1` (racemic) [Example 1695, 5-(4-amino-5-((4,4-difluoropiperidin-1-yl)methyl)pyrrolo[2,1-f][1,2,4]triazin-7-yl)-2-methoxy-N-((1SR,3RS)-3-phenylcyclohexyl)nicotinamide] as the molecule, how does the IC50 read?
**A.** 0.009 µM

**Q.** For `Cc1c(F)cc(-c2cc(C(F)(F)F)c3c(N)ncnn23)cc1C(=O)N[C@@H]1CN(C(=O)c2cccnc2)C[C@@H]1F` [Example 1322, 5-[4-amino-5-(trifluoromethyl)pyrrolo-[2,1-f][1,2,4]triazin-7-yl]-3-fluoro-N-[(3R,4S)-4-fluoro-1-(pyridine-3-carbonyl)pyrrolidin-3-yl]-2-methyl-benzamide], which IC50 is on record?
**A.** 0.023 µM

**Q.** For `CCOc1ccc(-c2cc(C(F)(F)F)c3c(N)ncnn23)cc1C(=O)N[C@@H]1CN(C(=O)c2ccccc2F)C[C@@H]1F` [Example 1099, 5-[4-amino-5-(trifluoromethyl)pyrrolo[2,1-f][1,2,4]triazin-7-yl]-2-ethoxy-N-[(3R,4S)-4-fluoro-1-(2-fluorobenzoyl)pyrrolidin-3-yl]benzamide], which IC50 is on record?
**A.** 0.021 µM

**Q.** With `COc1ncc(-c2cc(CN3CCC(C(F)(F)F)CC3)c3c(N)ncnn23)cc1C(=O)N[C@@H]1CN(C(=O)[C@@](C)(O)C(F)(F)F)C[C@@H]1F` [Example 1598, 5-(4-amino-5-{[4-(trifluoromethyl)piperidin-1-yl]methyl}pyrrolo[2,1-f][1,2,4]triazin-7-yl)-N-[(3R,4S)-4-fluoro-1-[(2R)-3,3,3-trifluoro-2-hydroxy-2-methylpropanoyl]pyrrolidin-3-yl]-2-methoxypyridine-3-carboxamide] as the molecule, how does the IC50 read?
**A.** 0.0012 µM

**Q.** `CCc1ccc(-c2cc(C(F)(F)F)c3c(N)ncnn23)c(F)c1C(=O)N[C@@H]1CN(C(=O)CC(C(F)(F)F)C(F)(F)F)C[C@@H]1F` [Example 736, 3-[4-amino-5-(trifluoromethyl)pyrrolo[2,1-f][1,2,4]triazin-7-yl]-6-ethyl-2-fluoro-N-[(3R,4S)-4-fluoro-1-[4,4,4-trifluoro-3-(trifluoromethyl)butanoyl]pyrrolidin-3-yl]benzamide] was tested. Which IC50 did it give?
**A.** 0.046 µM

**Q.** `COc1ccc(-c2cc(C(F)(F)F)c3c(N)ncnn23)cc1C(=O)N[C@@H]1CN(C(=O)CC(C(F)(F)F)C(F)(F)F)C[C@@H]1F` [Example 1131, 5-[4-amino-5-(trifluoromethyl)pyrrolo[2,1-f][1,2,4]triazin-7-yl]-N-[(3R,4S)-4-fluoro-1-[4,4,4-trifluoro-3-(trifluoromethyl)butanoyl]pyrrolidin-3-yl]-2-methoxybenzamide] was tested. Which IC50 did it give?
**A.** 0.0033 µM

**Q.** How did the IC50 turn out when `CCC(O)(C(=O)N1C[C@H](F)[C@H](NC(=O)c2cc(-c3cc(CN4CCC(C(F)(F)F)CC4)c4c(N)ncnn34)cnc2OC)C1)C(F)(F)F` (stereo partly drawn) [Example 1629, 5-(4-amino-5-{[4-(trifluoromethyl)piperidin-1-yl]methyl}pyrrolo[2,1-f][1,2,4]triazin-7-yl)-N-[(3R,4S)-4-fluoro-1-[2-hydroxy-2-(trifluoromethyl)butanoyl]pyrrolidin-3-yl]-2-methoxypyridine-3-carboxamide] was run?
**A.** 0.0092 µM

**Q.** With `COc1ncc(-c2cc(C(F)(F)F)c3c(N)ncnn23)cc1C(=O)N[C@@H]1CN(C(=O)C2(C(F)(F)F)CC2)C[C@@H]1F` [Example 1671, 5-(4-amino-5-(trifluoromethyl)pyrrolo[2,1-f][1,2,4]triazin-7-yl)-N-((3R,4S)-4-fluoro-1-(1-(trifluoromethyl)cyclopropane-1-carbonyl)pyrrolidin-3-yl)-2-methoxynicotinamide] as the molecule, how does the IC50 read?
**A.** 0.008 µM

**Q.** `Cc1ccc(-c2cc(C(F)(F)F)c3c(N)ncnn23)cc1C(=O)N[C@@H]1CN(C(=O)c2cc(Cl)ccn2)C[C@@H]1F` [Example 1015, 5-[4-amino-5-(trifluoromethyl)pyrrolo[2,1-f][1,2,4]triazin-7-yl]-N-[(3R,4S)-1-(4-chloropyridine-2-carbonyl)-4-fluoropyrrolidin-3-yl]-2-methylbenzamide] was tested. Which IC50 did it give?
**A.** 0.022 µM

**Q.** With `Nc1ncnn2c(-c3cc(C(=O)N[C@@H]4CN(C(=O)C5CCC(F)(F)C5)C[C@@H]4F)ccc3F)cc(C(F)(F)F)c12` (stereo partly drawn) [Example 424, 3-[4-amino-5-(trifluoromethyl)pyrrolo[2,1-f][1,2,4]triazin-7-yl]-N-[(3R,4S)-1-(3,3-difluorocyclopentane-carbonyl)-4-fluoropyrrolidin-3-yl]-4-fluorobenzamide] as the molecule, how does the IC50 read?
**A.** 0.024 µM

**Q.** `COc1ncc(-c2cc(C)c3c(N)ncnn23)cc1C(=O)N[C@@H]1CN(C(=O)[C@@](C)(O)C(F)(F)F)C[C@@H]1F` [Example 1593, 5-{4-amino-5-methylpyrrolo[2,1-f][1,2,4]triazin-7-yl}-N-[(3R,4S)-4-fluoro-1-[(2R)-3,3,3-trifluoro-2-hydroxy-2-methylpropanoyl]pyrrolidin-3-yl]-2-methoxypyridine-3-carboxamide] was tested. Which IC50 did it give?
**A.** 0.01 µM

**Q.** How did the IC50 turn out when `COc1ncc(-c2ccc3c(N)ncnn23)cc1C(=O)N[C@@H]1CN(C(=O)[C@@](C)(O)C(F)(F)F)C[C@@H]1F` [Example 1595, 5-{4-aminopyrrolo[2,1-f][1,2,4]triazin-7-yl}-N-[(3R,4S)-4-fluoro-1-[(2R)-3,3,3-trifluoro-2-hydroxy-2-methylpropanoyl]pyrrolidin-3-yl]-2-methoxypyridine-3-carboxamide] was run?
**A.** 0.013 µM

**Q.** Which IC50 does the source give for `Cc1ncc(-c2cc(C(F)(F)F)c3c(N)ncnn23)cc1C(=O)N1CCC[C@@H](Cc2cccc(F)c2)C1` [Example 173, 7-{5-[(3S)-3-[(3-fluorophenyl)methyl]piperidine-1-carbonyl]-6-methylpyridin-3-yl}-5-(trifluoromethyl)pyrrolo[2,1-f][1,2,4]triazin-4-amine] here?
**A.** 0.0057 µM

**Q.** With `COc1ncc(-c2cc(C(F)(F)F)c3c(N)ncnn23)cc1C(=O)N[C@H]1CN(C(=O)c2ccccc2)C[C@H]1C` (stereo in doubt) [Example 14, 5-[4-amino-5-(trifluoromethyl)pyrrolo[2,1-f][1,2,4]triazin-7-yl]-N-(1-benzoyl-4-methylpyrrolidin-3-yl)-2-methoxypyridine-3-carboxamide] as the molecule, how does the IC50 read?
**A.** 2.62 µM

**Q.** With `COc1ccc(-c2cc(C(F)(F)F)c3c(N)ncnn23)cc1C(=O)NCCC(O)c1ccccc1` (racemic) [Example 161, 5-[4-amino-5-(trifluoromethyl)pyrrolo[2,1-f][1,2,4]triazin-7-yl]-N-(3-hydroxy-3-phenylpropyl)-2-methoxybenzamide] as the molecule, how does the IC50 read?
**A.** 0.043 µM

**Q.** `Nc1ncnn2c(-c3ccc(F)c(C(=O)N[C@@H]4CN(C(=O)c5ccccc5F)C[C@@H]4F)c3F)cc(C(F)(F)F)c12` [Example 725, 3-[4-amino-5-(trifluoromethyl)pyrrolo[2,1-f][1,2,4]triazin-7-yl]-2,6-difluoro-N-[(3R,4S)-4-fluoro-1-(2-fluorobenzoyl)pyrrolidin-3-yl]benzamide] was tested. Which IC50 did it give?
**A.** 0.068 µM

**Q.** How did the IC50 turn out when `Cc1c(F)cc(-c2cc(C(F)(F)F)c3c(N)ncnn23)cc1C(=O)N[C@@H]1CN(C(=O)C(C)(C)C(F)(F)F)C[C@@H]1F` [Example 676, 5-[4-amino-5-(trifluoromethyl)pyrrolo[2,1-f][1,2,4]triazin-7-yl]-3-fluoro-N-[(3R,4S)-4-fluoro-1-(3,3,3-trifluoro-2,2-dimethylpropanoyl)pyrrolidin-3-yl]-2-methylbenzamide] was run?
**A.** 0.0025 µM

**Q.** Which IC50 does the source give for `CC(O)(CC(=O)N1C[C@H](F)[C@H](NC(=O)c2cc(-c3cc(C(F)(F)F)c4c(N)ncnn34)ccc2OC(F)(F)F)C1)C(F)(F)F` (stereo partly drawn) [Example 1062, 5-[4-amino-5-(trifluoromethyl)pyrrolo[2,1-f][1,2,4]triazin-7-yl]-N-[(3R,4S)-4-fluoro-1-(4,4,4-trifluoro-3-hydroxy-3-methylbutanoyl)pyrrolidin-3-yl]-2-(trifluoromethoxy)benzamide] here?
**A.** 0.098 µM
